Test results from article PMC4336329 (PLoS ONE, 2015).
In all, about 310,000 compounds went through this assay and about 14,000 (4.5%) showed an effect of 50% or more. The effect is printed as a negative number. Some of the results follow.

target: human ether-à-go-go-related gene (hERG) potassium channel (human, UniProt Q12809); experiment: primary screen, population patch clamp on CHO cells stably expressing hERG
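Also: peak tail current of the secondary pulse compared with the same well before compound.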

Chain of human ether-à-go-go-related gene (hERG) potassium channel (Q12809 whole entry, looked up): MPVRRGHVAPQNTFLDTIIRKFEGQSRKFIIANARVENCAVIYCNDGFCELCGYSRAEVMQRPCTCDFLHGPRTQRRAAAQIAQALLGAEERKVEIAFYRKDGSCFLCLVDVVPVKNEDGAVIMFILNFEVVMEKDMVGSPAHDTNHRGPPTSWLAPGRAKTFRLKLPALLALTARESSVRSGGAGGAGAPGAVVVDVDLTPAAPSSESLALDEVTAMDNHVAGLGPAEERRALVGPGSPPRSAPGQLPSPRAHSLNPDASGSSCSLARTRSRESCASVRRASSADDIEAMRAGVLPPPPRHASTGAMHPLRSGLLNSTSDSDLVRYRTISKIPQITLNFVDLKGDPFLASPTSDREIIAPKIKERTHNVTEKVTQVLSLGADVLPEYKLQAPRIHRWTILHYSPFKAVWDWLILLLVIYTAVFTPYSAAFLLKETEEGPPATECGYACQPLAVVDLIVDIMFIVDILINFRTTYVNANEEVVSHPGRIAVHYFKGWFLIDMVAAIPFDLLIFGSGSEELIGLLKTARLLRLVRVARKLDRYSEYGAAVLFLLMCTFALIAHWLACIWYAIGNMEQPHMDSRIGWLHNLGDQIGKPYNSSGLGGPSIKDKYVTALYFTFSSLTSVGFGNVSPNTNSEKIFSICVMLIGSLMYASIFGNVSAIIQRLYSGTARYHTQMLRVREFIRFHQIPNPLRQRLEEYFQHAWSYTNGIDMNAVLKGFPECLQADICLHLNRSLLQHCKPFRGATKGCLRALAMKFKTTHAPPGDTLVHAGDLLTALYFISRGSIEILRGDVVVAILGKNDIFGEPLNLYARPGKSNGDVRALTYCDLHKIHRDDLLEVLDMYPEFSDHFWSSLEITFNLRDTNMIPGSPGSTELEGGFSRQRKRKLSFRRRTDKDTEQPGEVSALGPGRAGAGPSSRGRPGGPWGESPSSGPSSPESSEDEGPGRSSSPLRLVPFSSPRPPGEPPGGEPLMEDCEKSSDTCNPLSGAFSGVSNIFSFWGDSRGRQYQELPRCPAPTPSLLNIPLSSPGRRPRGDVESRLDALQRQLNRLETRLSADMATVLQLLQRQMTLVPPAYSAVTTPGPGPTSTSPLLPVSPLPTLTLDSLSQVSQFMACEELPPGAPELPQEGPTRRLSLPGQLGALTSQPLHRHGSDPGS

Row | SMILES | hERG current change (%, negative = inhibition) at 10uM [%]
1 | CCOC(=O)c1c(NC(=O)c2cc(CC(C)C)on2)sc(C(C)=O)c1C | 18.2
2 | Cc1nc2ccccn2c1C(=O)N/N=C/c1ccc([N+](=O)[O-])o1 | -64.1
3 | CN(Cc1ccon1)Cc1cn(C)nc1-c1ccc2c(c1)OCCO2 | 11.2
4 | COc1ccc(N2C(=O)CC(Nc3cccc([N+](=O)[O-])c3)C2=O)cc1 (centres unmarked) | 2.97
5 | CCN1C(=O)CC(NC2CCN(C(=O)c3ccc(F)cc3)CC2)C1=O (centres unmarked) | 12.4
6 | Cc1ccnc(NC(=O)C2COc3ccccc3O2)c1 (centres unmarked) | 2.02
7 | Cc1cccc(NC(=O)Cn2nc(C(F)(F)F)cc2C2CC2)c1 | -3.57
8 | COc1ccc(Nc2ncnc3c2cnn3Cc2ccc(C)cc2)cc1 | -1.4
9 | COCC(=O)N(C)c1nnc(-c2ccccn2)s1 | 4.23
10 | C(=N\c1nccs1)/Nc1nccs1 | 7.61
11 | CCN1CCN(CC(=O)c2cc(OC)c(OC)c(OC)c2)CC1 | 12.8
12 | COc1ccccc1C(CNc1ncccc1[N+](=O)[O-])N(C)C (centres unmarked) | -22
13 | Cc1cccc(-c2nc3c(c(SCC(=O)N(C)C)n2)CCCC3)c1 | -21.5
14 | NC(=O)c1nsc(C(=O)N(CC(=O)NCc2ccc3c(c2)OCO3)C2CCCCC2)c1N | -14.7
15 | CCOC(=O)N1CCN(C(=O)c2ccc(CNS(=O)(=O)c3ccc(NC(C)=O)cc3)cc2)CC1 | 20.1
16 | COc1ccccc1CNC(=O)CS(=O)Cc1nc(-c2ccccc2C)oc1C (centres unmarked) | -1.32
17 | O=C(C1CCCN(S(=O)(=O)c2cccs2)C1)N1CCC(N2CCCCC2)CC1 (centres unmarked) | -61.7
18 | Cc1ccc(NC(=S)NNc2ccc(C(=O)O)cc2[N+](=O)[O-])cc1C | 23.1
19 | CC(C)c1ccc(NC(=O)c2ccc(NC3=NC4CS(=O)(=O)CC4S3)cc2)cc1 (centres unmarked) | 5.9

Row | SMILES | hERG current change (%, negative = inhibition) at 10uM [%]
20 | COc1ccccc1C(=O)N/C(=C\c1cn(S(=O)(=O)N(C)C)c2ccccc12)C(=O)N1CCCCC1 | 13.5
21 | COc1cc(NC(=O)c2ccc(-c3cccc([N+](=O)[O-])c3)o2)ccc1NC(=O)C(C)C | -5.61
22 | CC(=O)c1ccc(NC(=S)N(CCCN(C)C)Cc2ccccc2)cc1 | -53.3
23 | CCN(CC)S(=O)(=O)c1ccc(C(=O)Nc2ccc(OCC(=O)N3CCOCC3)cc2)cc1 | 8.3
24 | CNCCCc1[nH]nc(N)c1C#N | 4.22
25 | COc1cc(OC)c(C2C(C(=O)Nc3ccccc3)=C(C)Nc3ncnn32)cc1OC (centres unmarked) | -2.97
26 | C[C@H](NC(=O)C1CCC(CNC(=O)[C@@H]2CCCN2C(=O)OC(C)(C)C)CC1)C(=O)O (some centres unmarked) | 12.4
27 | CC(=O)N[C@H]1C[C@@H]1c1ccccc1 | -14.2
28 | CCCSC1=C(C#N)C(c2ccc(O)c(OC)c2)CC(=O)N1 (centres unmarked) | -45.1
29 | NC(=O)CSc1nnc(-c2ccccc2F)n1C1CC1 | 20.3
30 | COC(=O)c1c(NC(=O)Cn2cc([N+](=O)[O-])cn2)sc2c1CCC2 | 11.1
31 | CC(O)CNc1cc(N)c([N+](=O)[O-])cc1[N+](=O)[O-] (centres unmarked) | -8.32
32 | Cc1ccc(C(=O)N2CCN(S(=O)(=O)c3ccccc3)CC2)s1 | -7.38
33 | O=C(CCC(=O)c1cccs1)NCC(c1ccc(F)cc1)N1CCOCC1 (centres unmarked) | -5.89
34 | CCC(Oc1ccccc1)C(=O)Nc1ccccc1OC (centres unmarked) | -1.4
35 | Cc1nn(CC(=O)NCCCN2CCN(Cc3ccccc3)CC2)c(=O)c2cc(-c3ccccc3)nn12 | -70.1
36 | Cc1ccc2c(c1)N(CC(=O)NC1CCCC1)C(=O)CO2 | 8.92
37 | CCC(C)(C)NC(=O)Cc1ccc(C)cc1 | -1.94
38 | COc1ccc2[nH]c(=O)c(CN(Cc3cccnc3)C(=O)Nc3ccccc3)cc2c1 | -54.6

Row | SMILES | hERG current change (%, negative = inhibition) at 10uM [%]
39 | CCOC(=O)c1[nH]c2ccc(C(=O)OC)cc2c1C(=O)OCC | 1.84
40 | O=C(CC1C(=O)NCCN1Cc1cccc(Oc2ccccc2)c1)NCC1CCOCC1 (centres unmarked) | 2.62
41 | COc1ccc(OCC(=O)NNC(=O)CCc2ccccc2)cc1 | 14.2
42 | C=CCOc1ccc(/C=C2\SC(=S)N(N3CCOCC3)C2=O)cc1 | 10.7
43 | C=CCOc1cccc(C(=O)N2CCCC(CNS(=O)(=O)c3cccs3)C2)c1 (centres unmarked) | -5.84
44 | CCS(=O)(=O)NCCCc1ccccc1 | -2.89
45 | COc1ccc(N(CC(=O)Nc2cccc(C)c2)S(=O)(=O)c2ccc(C)cc2)cc1OC | -4.53
46 | Cc1ccc(C)c(NC(=S)NCc2ccccc2)c1 | 13.8
47 | NS(=O)(=O)c1ccc(CCNC(=O)C(=O)c2cn(CC(=O)N3CCCC3)c3ccccc23)cc1 | 14.3
48 | COc1cccc2cc(C(=O)NC(C)C3CCCO3)c(=O)oc12 (centres unmarked) | -5.01
49 | N#CC1(c2ccc(NC(=O)c3ccccc3)cc2)CCCC1 | -5.85
50 | CC(C)C1CC(CCNCc2ccc(N(C)C)cc2)(c2ccccc2)CCO1 (centres unmarked) | -24.6
51 | CC(C)(C)c1nc2ccc([N+](=O)[O-])cc2[nH]1 | -77.7
52 | COc1ccc(OC)c(C(=O)c2c(C)oc3cc([N+](=O)[O-])c(O)c([N+](=O)[O-])c23)c1 | 13.3
53 | O=C(COC(=O)c1cccc(Cl)c1)Nc1ccc2[nH]c(=O)[nH]c2c1 | 6.53
54 | CC(C)(C)NCC(O)c1cc(Cl)c(N)c(Cl)c1.Cl (centres unmarked) | -2.17
55 | O=C(NCCN1CCOCC1)c1cc2ccccc2oc1=O | -1.87
56 | Cc1ccc(S(=O)(=O)N2CCN(C(=O)COC(=O)C3CC3C)CC2)c(C)c1 (centres unmarked) | -18.9
